Some of the results follow. Cleavage of a single-stranded DNA pool by Rep nickase domains was read by sequencing at 3 µM enzyme and 37 °C for 1 h; the strands have 90 letters, of which the middle is given. A value is the log2 ratio of uncut reads to the pool without enzyme; more negative means more cut, near 0 not cut, and no call is made. Counts are relative to all reads, so uncut sequences can rise above 0 when many others are cut.
Key:
Assay in all cases: uncleaved DNA left, log2 of reads against the no-enzyme library (log2 ratio); higher = less cleavage (more negative = more Rep cleavage of the k-mer); sequences stand for … in CTCGTCCG…ACCGGAGA
[1] = tested on: T1, Rep nickase domain of Muscovy duck circovirus
T1 sequence (residues 1-111 of Rep, tag left off): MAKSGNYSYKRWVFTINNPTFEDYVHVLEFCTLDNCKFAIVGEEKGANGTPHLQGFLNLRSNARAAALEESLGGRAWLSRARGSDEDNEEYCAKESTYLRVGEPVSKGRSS
Method: (§1)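 A pool of 90-nt single-stranded DNAs with seven random bases just before the constant AC of the nick site (name = the seven bases) was cut by 3 µM recombinant His6-SUMO-tagged Rep nickase domain (300 nM DNA, 50 mM HEPES pH 8.0, 50 mM NaCl, 1 mM MnCl2, 1 h, 37 °C, three replicates). Uncut DNA was amplified and sequenced.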

[2] = tested on: T2, Rep nickase domain of banana bunchy top virus
T2 sequence (residues 1-94 of Rep, tag left off): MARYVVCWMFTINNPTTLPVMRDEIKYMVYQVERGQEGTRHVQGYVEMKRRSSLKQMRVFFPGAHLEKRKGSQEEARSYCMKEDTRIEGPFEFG
Method: as §1

[3] = tested on: T3, Rep nickase domain of cabbage leaf curl virus
T3 sequence (residues 1-116 of Rep, tag left off): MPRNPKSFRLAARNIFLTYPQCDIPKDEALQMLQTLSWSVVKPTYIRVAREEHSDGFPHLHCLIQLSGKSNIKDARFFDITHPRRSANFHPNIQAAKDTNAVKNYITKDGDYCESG
Method: as §1

[4] = tested on: T4, Rep nickase domain of chickpea chlorotic dwarf virus
T4 sequence (residues 1-124 of Rep, tag left off): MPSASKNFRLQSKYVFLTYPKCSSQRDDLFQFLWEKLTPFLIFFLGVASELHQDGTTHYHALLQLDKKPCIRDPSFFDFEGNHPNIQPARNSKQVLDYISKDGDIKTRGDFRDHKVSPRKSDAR
Method: as §1

[5] = tested on: T5, Rep nickase domain of faba bean necrotic yellows virus
T5 sequence (residues 1-98 of Rep, tag left off): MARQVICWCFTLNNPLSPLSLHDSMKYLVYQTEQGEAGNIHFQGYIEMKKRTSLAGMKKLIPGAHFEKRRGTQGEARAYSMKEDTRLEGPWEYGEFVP
Method: as §1

[6] = tested on: T6, Rep nickase domain of maize striate mosaic virus
T6 sequence (residues 1-117 of Rep, tag left off): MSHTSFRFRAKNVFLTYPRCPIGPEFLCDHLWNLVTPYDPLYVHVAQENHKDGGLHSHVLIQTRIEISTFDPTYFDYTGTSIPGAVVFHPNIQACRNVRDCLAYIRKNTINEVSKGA
Method: as §1

[7] = tested on: T7, Rep nickase domain of porcine circovirus 2
T7 sequence (residues 2-116 of Rep, tag left off): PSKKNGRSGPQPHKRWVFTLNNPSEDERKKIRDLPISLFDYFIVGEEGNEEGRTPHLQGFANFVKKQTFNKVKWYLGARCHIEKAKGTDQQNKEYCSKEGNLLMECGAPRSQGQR
Method: as §1

[8] = tested on: T8, Rep nickase domain of tomato yellow leaf curl virus
T8 sequence (residues 1-136 of Rep, tag left off): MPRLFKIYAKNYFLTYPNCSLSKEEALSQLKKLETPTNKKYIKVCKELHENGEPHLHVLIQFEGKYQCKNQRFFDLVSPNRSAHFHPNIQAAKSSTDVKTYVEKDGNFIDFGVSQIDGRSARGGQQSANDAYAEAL
Method: as §1

[9] = tested on: T9, Rep nickase domain of wheat dwarf virus
T9 sequence (residues 1-137 of Rep, tag left off): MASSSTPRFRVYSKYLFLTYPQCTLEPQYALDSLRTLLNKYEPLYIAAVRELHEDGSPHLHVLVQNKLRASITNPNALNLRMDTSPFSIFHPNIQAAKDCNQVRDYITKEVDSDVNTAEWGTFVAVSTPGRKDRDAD
Method: as §1

Row | Sequence | uncleaved DNA left (log2) [1] | uncleaved DNA left (log2) [2] | uncleaved DNA left (log2) [3] | uncleaved DNA left (log2) [4] | uncleaved DNA left (log2) [5] | uncleaved DNA left (log2) [6] | uncleaved DNA left (log2) [7] | uncleaved DNA left (log2) [8] | uncleaved DNA left (log2) [9]
1 | CGTCGAG | -0.00426 | 0.0332 | -0.0346 | 0.0364 | -0.00558 | -0.741 | 0.132 | 0.0453 | -0.0287
2 | TTAGTCC | 0.0563 | -0.0331 | 0.343 | -0.0508 | 0.0861 | 0.449 | -0.0417 | 0.0449 | 0.123
3 | CGATCTG | -0.0259 | -0.123 | -0.0943 | 0.604 | -0.0816 | 1.66 | -0.0766 | -0.0391 | 0.0661
4 | AGATGCT | -1.19 | -0.0751 | -0.789 | -1.45 | -0.0566 | -1.02 | -3.32 | -0.0508 | -0.307
5 | CTCAGTT | -0.13 | -0.19 | -0.347 | -1.82 | -0.0484 | -0.587 | -0.288 | -0.127 | -0.256
6 | AAGAGCA | -0.0225 | 0.0612 | -0.147 | -0.595 | 0.00347 | -0.601 | -2.22 | 0.119 | 0.0182
7 | CCCCTGG | -0.194 | -0.154 | -0.0262 | 0.307 | -0.0543 | -0.302 | -0.111 | -0.168 | -0.181
8 | AGCACCT | 0.0841 | 0.0641 | 0.0708 | -0.228 | 1.39e-05 | 0.972 | -0.203 | -5.92e-05 | 0.0808
9 | AAGTCAA | -0.0215 | 0.00417 | -0.0102 | -0.594 | 0.0253 | -0.257 | -2.64 | 0.0589 | 0.174
10 | GTCTATC | -0.0482 | -0.0723 | 0.172 | 0.771 | -0.161 | 1.43 | -0.0872 | -0.117 | -0.0951
11 | TGAGGTT | 0.0981 | 0.0695 | 0.517 | 1.23 | 0.0604 | 1.9 | 0.301 | 0.103 | 0.0818
12 | CCCTTGT | -0.227 | -0.0546 | -0.166 | -0.734 | 0.0502 | -0.964 | -0.795 | -0.0313 | -0.122
13 | GGACCTT | 0.0726 | 0.173 | 0.828 | 1.78 | 0.0852 | 2.28 | 0.203 | 0.164 | 0.207
14 | CGAAGCC | 0.13 | 0.0939 | 0.279 | 0.684 | 0.0106 | 0.656 | 0.159 | 0.0337 | 0.0513
15 | CCCAGGA | 0.0756 | 0.0364 | 0.114 | 0.707 | -0.0528 | -0.0677 | -0.00763 | -0.126 | -0.0762
